Test results: the supplement of paper PMC9151546
± gives the standard deviation of the averaged measurements. Many values rest on one well or one pass, so single values are uncertain.

Columns and labels:
CHO-K1 [1] = assay: hypodiploid nuclei frequency (% of nucleated events); higher = more hypodiploid events (aneugenic)
CHO-K1 [2] = assay: relative survival (nuclei to bead ratio vs DMSO control) (% of vehicle control); higher = more surviving cells
CHO-K1 [3] = assay: micronucleus frequency (% of nucleated events); higher = more micronuclei (genotoxic)
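For hypodiploid nuclei frequency (% of nucleated events) in this document: hypodiploid nuclei gated on a flow cytometer with 488 nm excitation after SYTOX Green staining, cultures at 37 °C, positive controls vinblastine without S9 and cyclophosphamide with S9.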
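For micronucleus frequency (% of nucleated events) in this document: cells lysed with nuclei stained by SYTOX Green, then micronucleus-gated events counted against nucleated events by flow cytometry with 488 nm excitation.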
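For relative survival (nuclei to bead ratio vs DMSO control) in this document: Lysed-cell nuclei stained with SYTOX Green and counted against counting beads by flow cytometry at 488 nm excitation, with vinblastine (no S9) and cyclophosphamide (plus S9) as positive controls.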

CN(C)c1ccc(N=NS(=O)(=O)O)cc1 [Fenaminosulf]
Conditions	hypodiploid nuclei frequency, CHO-K1 [1] [%]	micronucleus frequency, CHO-K1 [3] [%]	relative survival, CHO-K1 [2]
concentration: 4.5 (µM), S9 metabolic activation: with S9, exposure time: 3-4 hours	0.48	2.48	126
concentration: 4.5 (µM), S9 metabolic activation: without S9, exposure time: 24 hours	0.94	1.86	108
concentration: 5.63 (µM), S9 metabolic activation: with S9, exposure time: 3-4 hours	0.42	1.9	130
concentration: 5.63 (µM), S9 metabolic activation: without S9, exposure time: 24 hours	0.9	1.62	97.3
concentration: 7.04 (µM), S9 metabolic activation: with S9, exposure time: 3-4 hours	0.2	1.96	140
concentration: 7.04 (µM), S9 metabolic activation: without S9, exposure time: 24 hours	0.94	1.74	101
concentration: 8.8 (µM), S9 metabolic activation: with S9, exposure time: 3-4 hours	0.36	1.94	132
concentration: 8.8 (µM), S9 metabolic activation: without S9, exposure time: 24 hours	1.1	1.94	128
concentration: 11 (µM), S9 metabolic activation: with S9, exposure time: 3-4 hours	0.3	1.92	118
concentration: 11 (µM), S9 metabolic activation: without S9, exposure time: 24 hours	0.9	1.8	96.9
concentration: 13.7 (µM), S9 metabolic activation: with S9, exposure time: 3-4 hours	0.4	2.02	117
concentration: 13.7 (µM), S9 metabolic activation: without S9, exposure time: 24 hours	1.06	1.9	96.1
concentration: 17.2 (µM), S9 metabolic activation: with S9, exposure time: 3-4 hours	0.52	1.96	135
concentration: 17.2 (µM), S9 metabolic activation: without S9, exposure time: 24 hours	0.86	2.08	119
concentration: 21.5 (µM), S9 metabolic activation: with S9, exposure time: 3-4 hours	0.46	1.8	119
concentration: 21.5 (µM), S9 metabolic activation: without S9, exposure time: 24 hours	0.92	1.84	96.1
concentration: 26.8 (µM), S9 metabolic activation: with S9, exposure time: 3-4 hours	0.32	2.24	116
concentration: 26.8 (µM), S9 metabolic activation: without S9, exposure time: 24 hours	1.02	1.98	92.1
concentration: 33.6 (µM), S9 metabolic activation: with S9, exposure time: 3-4 hours	0.3	1.58	107
concentration: 33.6 (µM), S9 metabolic activation: without S9, exposure time: 24 hours	1.78	3.02	91.4
concentration: 41.9 (µM), S9 metabolic activation: with S9, exposure time: 3-4 hours	0.36	2.2	120
concentration: 41.9 (µM), S9 metabolic activation: without S9, exposure time: 24 hours	1.62	3.12	85.5
concentration: 52.4 (µM), S9 metabolic activation: with S9, exposure time: 3-4 hours	0.16	1.86	106
concentration: 52.4 (µM), S9 metabolic activation: without S9, exposure time: 24 hours	1.62	3.52	84.8
concentration: 65.5 (µM), S9 metabolic activation: with S9, exposure time: 3-4 hours	0.44	1.76	98.2
concentration: 65.5 (µM), S9 metabolic activation: without S9, exposure time: 24 hours	1.88	3.94	78.1
concentration: 81.9 (µM), S9 metabolic activation: with S9, exposure time: 3-4 hours	0.28	2.12	106
concentration: 81.9 (µM), S9 metabolic activation: without S9, exposure time: 24 hours	1.84	3.64	79.2
concentration: 102 (µM), S9 metabolic activation: with S9, exposure time: 3-4 hours	0.28	1.7	106
concentration: 102 (µM), S9 metabolic activation: without S9, exposure time: 24 hours	2	4.18	76
concentration: 128 (µM), S9 metabolic activation: with S9, exposure time: 3-4 hours	0.1	1.9	105
concentration: 128 (µM), S9 metabolic activation: without S9, exposure time: 24 hours	2.32	3.7	94.9
concentration: 160 (µM), S9 metabolic activation: with S9, exposure time: 3-4 hours	0.28	1.7	103
concentration: 160 (µM), S9 metabolic activation: without S9, exposure time: 24 hours	2.08	4.32	84.8
concentration: 200 (µM), S9 metabolic activation: with S9, exposure time: 3-4 hours	0.14	2.12	101
concentration: 200 (µM), S9 metabolic activation: without S9, exposure time: 24 hours	2.54	4.84	83.9

CN(Cc1cnc2nc(N)nc(N)c2n1)c1ccc(C(=O)N[C@@H](CCC(=O)O)C(=O)O)cc1 [Methotrexate]
Conditions	hypodiploid nuclei frequency, CHO-K1 [1] [%]	micronucleus frequency, CHO-K1 [3] [%]	relative survival, CHO-K1 [2]
concentration: 4.5 (µM), S9 metabolic activation: with S9, exposure time: 3-4 hours	0.24	2.18	86.4
concentration: 4.5 (µM), S9 metabolic activation: without S9, exposure time: 24 hours	0.68 ± 0.085	1.48 ± 0.37	82.6 ± 9.9
concentration: 5.63 (µM), S9 metabolic activation: with S9, exposure time: 3-4 hours	0.48	2.48	90
concentration: 5.63 (µM), S9 metabolic activation: without S9, exposure time: 24 hours	0.59 ± 0.27	1.72 ± 0.2	83.5 ± 12
concentration: 7.04 (µM), S9 metabolic activation: with S9, exposure time: 3-4 hours	0.24	2.42	83.9
concentration: 7.04 (µM), S9 metabolic activation: without S9, exposure time: 24 hours	0.73 ± 0.014	1.75 ± 0.27	81.5 ± 5.2
concentration: 8.8 (µM), S9 metabolic activation: with S9, exposure time: 3-4 hours	0.34	2.18	102
concentration: 8.8 (µM), S9 metabolic activation: without S9, exposure time: 24 hours	0.79 ± 0.3	2.03 ± 0.21	91.3 ± 3.5
concentration: 11 (µM), S9 metabolic activation: with S9, exposure time: 3-4 hours	0.42	2.7	96.9
concentration: 11 (µM), S9 metabolic activation: without S9, exposure time: 24 hours	0.87 ± 0.071	1.54 ± 0.54	86.8 ± 11
concentration: 13.7 (µM), S9 metabolic activation: with S9, exposure time: 3-4 hours	0.26	1.94	77.9
concentration: 13.7 (µM), S9 metabolic activation: without S9, exposure time: 24 hours	1.06 ± 0.73	1.79 ± 0.27	90.7 ± 3.8
concentration: 17.2 (µM), S9 metabolic activation: with S9, exposure time: 3-4 hours	0.34	1.9	74.1
concentration: 17.2 (µM), S9 metabolic activation: without S9, exposure time: 24 hours	5.77 ± 6.8	2.54 ± 0.11	78.8 ± 15
concentration: 21.5 (µM), S9 metabolic activation: with S9, exposure time: 3-4 hours	0.4	2.22	92.2
concentration: 21.5 (µM), S9 metabolic activation: without S9, exposure time: 24 hours	–	–	64.6 ± 39
concentration: 26.8 (µM), S9 metabolic activation: with S9, exposure time: 3-4 hours	0.2	1.58	106
concentration: 26.8 (µM), S9 metabolic activation: without S9, exposure time: 24 hours	0.7	1.78 ± 0.028	87.7 ± 8.9
concentration: 33.6 (µM), S9 metabolic activation: with S9, exposure time: 3-4 hours	0.24	1.62	97.8
concentration: 33.6 (µM), S9 metabolic activation: without S9, exposure time: 24 hours	1.01 ± 0.16	1.82 ± 0.26	93.7 ± 12
concentration: 41.9 (µM), S9 metabolic activation: with S9, exposure time: 3-4 hours	0.38	1.66	98.9
concentration: 41.9 (µM), S9 metabolic activation: without S9, exposure time: 24 hours	0.89 ± 0.13	2.25 ± 0.72	85.5 ± 3.5
concentration: 52.4 (µM), S9 metabolic activation: with S9, exposure time: 3-4 hours	0.3	1.98	106
concentration: 52.4 (µM), S9 metabolic activation: without S9, exposure time: 24 hours	0.75 ± 0.13	1.85 ± 0.21	76.1 ± 15
concentration: 65.5 (µM), S9 metabolic activation: with S9, exposure time: 3-4 hours	0.24	1.18	93.5
concentration: 65.5 (µM), S9 metabolic activation: without S9, exposure time: 24 hours	0.81 ± 0.13	1.88 ± 0.085	83.4 ± 1.2
concentration: 81.9 (µM), S9 metabolic activation: with S9, exposure time: 3-4 hours	0.32	1.46	86.4
concentration: 81.9 (µM), S9 metabolic activation: without S9, exposure time: 24 hours	0.77 ± 0.071	1.84 ± 0.23	87.5 ± 14
concentration: 102 (µM), S9 metabolic activation: with S9, exposure time: 3-4 hours	0.24	2.66	90.8
concentration: 102 (µM), S9 metabolic activation: without S9, exposure time: 24 hours	1.16 ± 0.17	1.88 ± 0.17	78.6 ± 9.7
concentration: 128 (µM), S9 metabolic activation: with S9, exposure time: 3-4 hours	0.32	1.98	75.7
concentration: 128 (µM), S9 metabolic activation: without S9, exposure time: 24 hours	1.37 ± 0.24	2.12 ± 0.11	84.5 ± 14
concentration: 160 (µM), S9 metabolic activation: with S9, exposure time: 3-4 hours	0.36	2.1	95.6
concentration: 160 (µM), S9 metabolic activation: without S9, exposure time: 24 hours	1.76 ± 0.59	2.4 ± 0.057	80.9 ± 12
concentration: 200 (µM), S9 metabolic activation: with S9, exposure time: 3-4 hours	0.3	2.24	74.1
concentration: 200 (µM), S9 metabolic activation: without S9, exposure time: 24 hours	2.05 ± 0.92	2.39 ± 0.35	76.1 ± 4.2
